The results in this text go back to the supplement of paper PMC10126150.

For the data set, the system named is ATP. Kind of data set: switch fluorescence ratio, 500 uM ATP over buffer (Cy3 cluster intensity, sum of 5 cycles each) (fold (ratio)); higher = stronger signal-on switching upon ATP binding; sequences stand for … in TCGTCGGCAGCGTCAGATGTGTATAAGAGACAGTTTTTTTTTTTTTTTTTTTTTTTTT…TC. The note with it: aptamer strand: ATP DNA aptamer (quencher-CACCTGGGGGAGTATTGCGGAGGAAGG + anchor), 100 nM annealed; ATP concentration: 500 uM; one replicate. The essentials:
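The quencher-labelled ATP aptamer, at 100 nM, was annealed to Cy3-labelled switching-strand clusters on a modified Illumina MiSeq flow-cell. The clusters were imaged in selection buffer, then after 15 min with 500 uM ATP at 22 °C, and this buffer/ATP cycle ran five times with NaOH stripping and re-annealing between runs. Per-cluster fluorescence ratios, summed target-cycle over summed buffer-cycle Cy3 intensity, were averaged per switch-domain sequence. Clusters outside 100-1000 RFU were excluded.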

Values marked as one replicate rest on one cluster of the flow cell; about a third of the high ones do not repeat.
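Further: ATP exposure 15 min at 22 °C before imaging.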

For AACAGTCCTG, the switch fluorescence ratio is 1.02.

As to ATTACAAGAT, the switch fluorescence ratio worked out at 0.967.

As for CGGACGTCAG, the switch fluorescence ratio was found to be 0.97.

Consider TCTCCATGGA, for which the switch fluorescence ratio worked out at 1.01.

On to GTTGACGGT, for which the switch fluorescence ratio amounted to 0.994.

In the case of AAAAAGGGGC, the switch fluorescence ratio was determined as 1.

On to TCATCGCATA, for which the switch fluorescence ratio was found to be 3.37.

On to CTCACGAGA, for which the switch fluorescence ratio came to 1.15.

Turning to AGTGTAGGTG, the switch fluorescence ratio is 1.05.

For the sequence GGTTCGCGGG, the switch fluorescence ratio stood at 0.975.

As to CTAAGCATGG, the switch fluorescence ratio worked out at 1.16.

In the case of GCACTTTGCG, the switch fluorescence ratio was determined as 0.989.

On to GCCTTCCTTA, for which the switch fluorescence ratio was found to be 2.08.

AGGCGGGTTA: the switch fluorescence ratio worked out at 0.995.

For CCATGGGAGC, the switch fluorescence ratio was determined as 0.973.

GATTAGGCAA: the switch fluorescence ratio was 1.04.

On to CGGAGGTGGC, for which the switch fluorescence ratio is 1.07.

With TGGTCTACC, the switch fluorescence ratio turned out to be 1.02.

Regarding ACGACAGGGC, the switch fluorescence ratio stood at 1.12.

In the case of AAATTTGAG, the switch fluorescence ratio turned out to be 0.994.

As for GTCAGCCAAC, the switch fluorescence ratio came out at 1.09.

ATATCGCCTT: the switch fluorescence ratio came out at 1.

In the case of GTGGCTTATC, the switch fluorescence ratio amounted to 0.988.

Consider GCTGACTTTA, for which the switch fluorescence ratio was found to be 1.02.

Regarding TCTTACGGGC, the switch fluorescence ratio worked out at 1.02.

For the sequence CAGGAGCTGG, the switch fluorescence ratio turned out to be 1.03.

For AGGTAA, the switch fluorescence ratio worked out at 0.967.

AGTGAAATGC: the switch fluorescence ratio was 1.04.

With TCGCTTTCAG, the switch fluorescence ratio stood at 1.01.

With GCCATAGCTA, the switch fluorescence ratio was 1.06.

Take TAATAGTTAG: the switch fluorescence ratio is 0.973.

Turning to AGCCCTATCG, the switch fluorescence ratio was 0.972.

Consider AGCCGAAGGA, for which the switch fluorescence ratio was determined as 1.02.

Turning to TAAATCATAT, the switch fluorescence ratio is 0.975.

Turning to AATACATGGG, the switch fluorescence ratio is 0.994.

For the sequence CTCTTGATAA, the switch fluorescence ratio is 0.965.

With TGTAGGATGG, the switch fluorescence ratio came out at 1.02.

For TCAGCATTCG, the switch fluorescence ratio was 1.07.

GATTTTTGT: the switch fluorescence ratio turned out to be 0.984.

With TAGATCCT, the switch fluorescence ratio was 1.04.

For TGTGATGTTT, the switch fluorescence ratio worked out at 0.999.

In the case of CACATAAGGC, the switch fluorescence ratio was determined as 1.1.

Regarding CAATGAGTAC, the switch fluorescence ratio amounted to 1.22.

On to CGGACGCCAA, for which the switch fluorescence ratio came out at 2.78.

CCAAGGAGT: the switch fluorescence ratio stood at 1.01.

For ATCAATCGTG, the switch fluorescence ratio worked out at 1.03.

For the sequence TCTGCGTTAC, the switch fluorescence ratio came out at 3.53.

In the case of GCATATGGGC, the switch fluorescence ratio stood at 1.01.

As for GTTAAAAAAC, the switch fluorescence ratio was determined as 1.12.

Take CGACGGTTGA: the switch fluorescence ratio worked out at 1.07.

In the case of AGGGGGGACC, the switch fluorescence ratio is 1.01.

For AGTTTAGCTT, the switch fluorescence ratio came to 1.

Turning to CACATGAGAC, the switch fluorescence ratio was 1.03.

For AGATTTAAAA, the switch fluorescence ratio worked out at 1.1.

Take CCGAATGGG: the switch fluorescence ratio worked out at 0.985.

For TTTAAGTCAT, the switch fluorescence ratio was found to be 1.01.

As to TTCCGAGCTG, the switch fluorescence ratio stood at 1.58.

Consider CCGCTCAGGG, for which the switch fluorescence ratio turned out to be 1.44.

AACGACGGGT: the switch fluorescence ratio worked out at 1.02.

On to ACAGCAGCAG, for which the switch fluorescence ratio came out at 1.14.

As for TACTCTAATT, the switch fluorescence ratio worked out at 1.02.

AGGTGTAAGC: the switch fluorescence ratio worked out at 1.02.

For the sequence CTGGACGTGG, the switch fluorescence ratio stood at 0.953.

Regarding ATTTACTTCC, the switch fluorescence ratio turned out to be 1.59.

Turning to ACCTAGCTTG, the switch fluorescence ratio was 1.03.

On to AGGTATAAAT, for which the switch fluorescence ratio was determined as 0.962.

For the sequence AATACCCGTG, the switch fluorescence ratio was 1.04.

In the case of GCCAATAGAC, the switch fluorescence ratio came out at 1.76.

CGCAGTGGA: the switch fluorescence ratio worked out at 0.985.

As to TTGGAAAGCG, the switch fluorescence ratio was determined as 0.991.

Consider CGGAGGATTG, for which the switch fluorescence ratio came out at 0.987.

With TGGACACCCC, the switch fluorescence ratio came out at 1.13.

Take CGAGCAGAGA: the switch fluorescence ratio stood at 1.13.

Turning to TATTAGTCGC, the switch fluorescence ratio is 0.995.

Regarding GGCGGTTTTG, the switch fluorescence ratio came to 0.975.

Turning to GATTAATGG, the switch fluorescence ratio was 1.03.

AAACATAGAA: the switch fluorescence ratio came to 0.96.

As to TCCATCTTCG, the switch fluorescence ratio was 0.981.

Consider TCGTTGTATA, for which the switch fluorescence ratio was 0.951.

Turning to TATTTCCCAT, the switch fluorescence ratio was 1.

Consider CTGGCCAGAA, for which the switch fluorescence ratio was determined as 1.08.

In the case of ATCCATCATT, the switch fluorescence ratio stood at 0.979.

As to TATGCAAACT, the switch fluorescence ratio amounted to 1.05.

Turning to CTCACTCGAA, the switch fluorescence ratio was found to be 1.03.

As to TGGCATTTGC, the switch fluorescence ratio amounted to 1.04.

Regarding AGGCATAACT, the switch fluorescence ratio was determined as 1.07.

Turning to TGCCGCCGTC, the switch fluorescence ratio was 0.972.

For the sequence CCGAAATTAG, the switch fluorescence ratio came to 2.32.

As to TTGCACATAA, the switch fluorescence ratio worked out at 1.1.

For CGGGTCAGTA, the switch fluorescence ratio was determined as 1.01.

TAATGAACCT: the switch fluorescence ratio worked out at 1.04.

As to GAGGGAGTCA, the switch fluorescence ratio was 1.02.

In the case of TTTGAATAGT, the switch fluorescence ratio was determined as 0.995.

Consider TACCCACGCG, for which the switch fluorescence ratio is 1.33.

On to ACTTGGCTCT, for which the switch fluorescence ratio worked out at 1.05.

As for TGGTTTGAAA, the switch fluorescence ratio turned out to be 1.04.

Take TGGATCGCAC: the switch fluorescence ratio amounted to 2.83.

For GGCGTGCTAT, the switch fluorescence ratio turned out to be 0.991.

Turning to AAACATTGCT, the switch fluorescence ratio was 1.11.

As for GGTGTTTGCC, the switch fluorescence ratio is 0.978.

In the case of TGCTTCCAA, the switch fluorescence ratio stood at 1.06.

On to AGACTTTCGC, for which the switch fluorescence ratio was determined as 1.04.

For GTGCCCACGG, the switch fluorescence ratio was determined as 1.05.

As to GCTGTGT, the switch fluorescence ratio worked out at 1.04.

As for TTGTCTTGGC, the switch fluorescence ratio is 1.01.

Regarding TTAAAACTGT, the switch fluorescence ratio was found to be 1.1.

Consider CTCTCCGGGG, for which the switch fluorescence ratio was found to be 1.32.

In the case of CAATCGGAAC, the switch fluorescence ratio is 1.

As to ACTTTCGACT, the switch fluorescence ratio amounted to 1.13.

Turning to CGTGTCGAC, the switch fluorescence ratio is 1.02.

Take GCATCTTTGT: the switch fluorescence ratio came to 0.999.

Turning to TGTATCACAG, the switch fluorescence ratio worked out at 1.01.

For the sequence GCAATACGCT, the switch fluorescence ratio is 3.14.

Regarding AAAGTAGCAC, the switch fluorescence ratio turned out to be 1.01.

Take ACGCCCTGCA: the switch fluorescence ratio is 1.03.

AATGTTGCGA: the switch fluorescence ratio came out at 0.993.

CCTAAAACAC: the switch fluorescence ratio is 1.15.

In the case of TGTGATTGCT, the switch fluorescence ratio was 0.931.

On to ACGTCTGGG, for which the switch fluorescence ratio came to 1.01.

As for TCCGTAAGTT, the switch fluorescence ratio amounted to 1.1.

Regarding TCACTTTAAG, the switch fluorescence ratio came out at 1.01.
